The other results are listed elsewhere or left out.

The test concerns the target T1, OsWOX13 (Oryza sativa, UniProt Q5QMM3 1-267).
T1 sequence: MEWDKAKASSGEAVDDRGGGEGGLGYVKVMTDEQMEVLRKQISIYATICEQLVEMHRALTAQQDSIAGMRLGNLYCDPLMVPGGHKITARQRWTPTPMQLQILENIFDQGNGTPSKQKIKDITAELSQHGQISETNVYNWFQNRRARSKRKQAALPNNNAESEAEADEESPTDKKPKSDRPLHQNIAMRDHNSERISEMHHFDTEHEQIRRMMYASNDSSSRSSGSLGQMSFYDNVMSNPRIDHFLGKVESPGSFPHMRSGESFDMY
Nature of the test: protein-binding microarray (RPBM); PBS, 2% BSA, 51.3 ng/ul salmon testes DNA, 50 uM zinc acetate, 200 nM TF, 25 C, 1 h; high values mean tight binding. The conditions noted are these: protein: recombinant; tags: N-terminal polyhistidine and DsRed monomer fusion (pET32a); label: CyDye5-dUTP incorporated in the synthesized complementary strand; 3' TTTTT single-stranded linker to array surface; dsDNA, one strand shown. The method in brief:
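Binding signal is reported as fluorescence intensity per feature (arbitrary units) from an Axon 4000B scanner. Incubation used 200 nM of each Ni–NTA-purified, N-terminally polyhistidine- and DsRed-fused transcription factor from E. coli BL21-CodonPlus on a double-stranded custom Agilent array for 1 h at 25 °C, with 50 µM zinc acetate in the buffer, followed by washing.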
Consider “TTGAAATCAATTTTGATTATTAGCTGAGACTTATTTGACTCGGAGTCACCTAGTGCAG”, for which the binding signal is 27200 fluorescence intensity (a.u.).

Regarding “GTTAATGTACTAAATTACATTCACATAACAAGGTTATGTACGGAGTCACCTAGTGCAG”, the binding signal is 24300 fluorescence intensity (a.u.).

On to “GCAAATAGACATCTTTAGTGGTTAGCGAAGCGGTTTGTACCGGAGTCACCTAGTGCAG”, for which the binding signal is 8850 fluorescence intensity (a.u.).

Take “TGCAAGATTGAAGACTAGTTCAATAATGAGGCTAGTCCTTCGGAGTCACCTAGTGCAG”: the binding signal was 33900 fluorescence intensity (a.u.).

As to “CACGGATTATTTTGAGCAATTACCGCTCTAATCCGGGGCGCGGAGTCACCTAGTGCAG”, the binding signal is 3600 fluorescence intensity (a.u.).

In the case of “GCTGATTAGCCCTAGGCAACGCTCGCTAACACGCCACCACCGGAGTCACCTAGTGCAG”, the binding signal is 30900 fluorescence intensity (a.u.).

As to “AAAGATTGGAACTGATTAATGACATGTTTGAATGGTTAGGCGGAGTCACCTAGTGCAG”, the binding signal is 51500 fluorescence intensity (a.u.).

For the sequence “GATAAACACTAATTGCAGCAACTGGTAGGCATCAGAACACCGGAGTCACCTAGTGCAG”, the binding signal is 13100 fluorescence intensity (a.u.).

Take “TATAAATTGACTGATAAGCAACGGCCATTTCAGCTCAGATCGGAGTCACCTAGTGCAG”: the binding signal is 45600 fluorescence intensity (a.u.).

With “TGATATATCGAATAGATTGATATCAGTATTGTTGAAGCTACGGAGTCACCTAGTGCAG”, the binding signal is 12500 fluorescence intensity (a.u.).

Consider “GGCTAAACATGAAAACTGATTTATGGATAGTGGGTTTTGACGGAGTCACCTAGTGCAG”, for which the binding signal is 17500 fluorescence intensity (a.u.).

Turning to “TAAATTAATTTATATTTTATAATAAACCGTTTTGGTTTAACGGAGTCACCTAGTGCAG”, the binding signal is 40000 fluorescence intensity (a.u.).

Consider “AGTTATCTGATTTGCCCTTGTATTGGTTTGTATCACGTCGCGGAGTCACCTAGTGCAG”, for which the binding signal is 8210 fluorescence intensity (a.u.).

For the sequence “ACGTCTCTAGTGCCAATCATTTTATGTAGAGTGGAGCCACCGGAGTCACCTAGTGCAG”, the binding signal is 3750 fluorescence intensity (a.u.).

For the sequence “CTCTTAATTATCAAGTAATTACAACTAACAGTATAAGCTACGGAGTCACCTAGTGCAG”, the binding signal was 44400 fluorescence intensity (a.u.).

“ATGCTGTCATTTCTCATTTAGTTACTTTCAACTAATACTACGGAGTCACCTAGTGCAG”: the binding signal was 3670 fluorescence intensity (a.u.).

With “GTCCTACATATGCTAAATTGGCAATATGTAAAGATTTACTCGGAGTCACCTAGTGCAG”, the binding signal was 4980 fluorescence intensity (a.u.).

With “AAAGAAAATGATTGGACATTTTCTTTCACGTGTATGCTTACGGAGTCACCTAGTGCAG”, the binding signal is 47500 fluorescence intensity (a.u.).

For “TGCAAACTGGAGGCCAAATTTACTACAAAACTACGTATTTCGGAGTCACCTAGTGCAG”, the binding signal is 3890 fluorescence intensity (a.u.).

For the sequence “TAATAATTAGTATAATGAAAATAAATAAATTACCGGGAGTCGGAGTCACCTAGTGCAG”, the binding signal is 49300 fluorescence intensity (a.u.).

For the sequence “AGAAATTAATTTCTCTCGGTATTTTCTTCTTTCTTCTCTCCGGAGTCACCTAGTGCAG”, the binding signal is 34300 fluorescence intensity (a.u.).

Turning to “ACGTGTGATTAATTGAGTTTTAATTATTACAAACTTAAAACGGAGTCACCTAGTGCAG”, the binding signal was 40900 fluorescence intensity (a.u.).

Regarding “TGTTGTGATATATTGAAAGACAATTATAAATCTAAATGTGCGGAGTCACCTAGTGCAG”, the binding signal is 5410 fluorescence intensity (a.u.).

On to “TCATGCAATGATCGGAAAATTAATTGTCAATCCTAAGGCGCGGAGTCACCTAGTGCAG”, for which the binding signal is 10700 fluorescence intensity (a.u.).

In the case of “CTGGCCATTCAATCTCGAGTCAATGAAGTTAGTGATCCATCGGAGTCACCTAGTGCAG”, the binding signal is 5330 fluorescence intensity (a.u.).

Take “TTCATCAAACAGATTGCCAGCGATAGAACACATGAAGGGACGGAGTCACCTAGTGCAG”: the binding signal is 5230 fluorescence intensity (a.u.).

Turning to “ATAATAATTGGCTGTAACTCTGATGAGCAAAGGCTGAGATCGGAGTCACCTAGTGCAG”, the binding signal is 35200 fluorescence intensity (a.u.).

As to “ACAATGTGATTTGCTGCATCTTCTTACATCTGTTAATATTCGGAGTCACCTAGTGCAG”, the binding signal was 15200 fluorescence intensity (a.u.).

On to “ATTAAATAAGCTGTCATTTAGAATGAAAGATGATGTGGCACGGAGTCACCTAGTGCAG”, for which the binding signal is 4190 fluorescence intensity (a.u.).

Regarding “CCCCAACTGCACAATGATTGGTGCCCCTCCCGCCGCGCTCCGGAGTCACCTAGTGCAG”, the binding signal was 40100 fluorescence intensity (a.u.).

Consider “TTGGCAGATTGACAAGGGACCAGCCATGCCATTGCTCTGACGGAGTCACCTAGTGCAG”, for which the binding signal was 34600 fluorescence intensity (a.u.).

On to “TTAATTTATACCAGCTTAATTGCCGATCGAATTCACCACCCGGAGTCACCTAGTGCAG”, for which the binding signal was 33200 fluorescence intensity (a.u.).

As for “AGCTTCAATTTATCTATAGGCAATTTAATAGCTCATTAATCGGAGTCACCTAGTGCAG”, the binding signal was 5740 fluorescence intensity (a.u.).

For “ATGTTCCTATCAGTTGCTAATTATTAGTGTGACATCAATCCGGAGTCACCTAGTGCAG”, the binding signal is 16300 fluorescence intensity (a.u.).

Regarding “CCTAAATTACCCTTTAAAGATTAACTGTGGATAACAATTCCGGAGTCACCTAGTGCAG”, the binding signal is 16600 fluorescence intensity (a.u.).

For the sequence “AGATCCAATTAGCTTGTTTTGTGTATGGGTATTGATTTGTCGGAGTCACCTAGTGCAG”, the binding signal was 5270 fluorescence intensity (a.u.).

Regarding “AAAGTCATTGGCATATAATTAATTTAGTTTTAATTGTTTTCGGAGTCACCTAGTGCAG”, the binding signal was 7660 fluorescence intensity (a.u.).

For “AACAATAAATTTATATTATAGTTTTACGATACTTAGTTTTCGGAGTCACCTAGTGCAG”, the binding signal is 13300 fluorescence intensity (a.u.).

For “ACAAGAGAAATTGAAACCCCTGATTTCAAGTTTCAACCGGCGGAGTCACCTAGTGCAG”, the binding signal was 5000 fluorescence intensity (a.u.).

Regarding “TCCTGAATTAATGGGTAGCTGTAATAGTTGGAAGCCAACGCGGAGTCACCTAGTGCAG”, the binding signal is 4440 fluorescence intensity (a.u.).

Take “TCCAATGATTAATGATTAATCATTAATGGTTTCAGTACGTCGGAGTCACCTAGTGCAG”: the binding signal was 40000 fluorescence intensity (a.u.).

Turning to “GCGCCATGATTTAACGATGTGATGCTACAGTAAACATTTGCGGAGTCACCTAGTGCAG”, the binding signal is 6330 fluorescence intensity (a.u.).

Turning to “GTTTCATTAAATATGATAATGATAATGTGTCTATTTTGTACGGAGTCACCTAGTGCAG”, the binding signal was 6030 fluorescence intensity (a.u.).

With “CCTAAGTTATTGGGTTGATTAGCAAGGGAGGAGGTTGATGCGGAGTCACCTAGTGCAG”, the binding signal is 25600 fluorescence intensity (a.u.).

As to “CTCCAAATTAAATACAGTTAAATAAATTTTACTGTTAAGCCGGAGTCACCTAGTGCAG”, the binding signal was 19300 fluorescence intensity (a.u.).

On to “ACGTAATTTGGGACCACATGTGGGTGAAATCCCGTCTCGGCGGAGTCACCTAGTGCAG”, for which the binding signal is 8640 fluorescence intensity (a.u.).

In the case of “GTGACTGAATTTTAGTACTAGTAGATGAATGGAGTACGTCCGGAGTCACCTAGTGCAG”, the binding signal was 6120 fluorescence intensity (a.u.).

Take “TTTAAATTTGAACTTGAATTACAACGAGGGGATGGAGGGACGGAGTCACCTAGTGCAG”: the binding signal was 6280 fluorescence intensity (a.u.).

Regarding “AATTTCAATTAAACTTGATTGATGACCTATTTTGTTCGAACGGAGTCACCTAGTGCAG”, the binding signal is 35200 fluorescence intensity (a.u.).

For the sequence “TATATAATTACTACTAGTCGCCTCCGAAAGCTACCTCTGCCGGAGTCACCTAGTGCAG”, the binding signal was 11500 fluorescence intensity (a.u.).

Regarding “ATGATTTGACAATATGGTGCTATAGTAAACATTTGGTAATCGGAGTCACCTAGTGCAG”, the binding signal is 41400 fluorescence intensity (a.u.).

In the case of “GGAATCTCCAATTAGTACACCGCCCCTGATCCCCTCTATGCGGAGTCACCTAGTGCAG”, the binding signal was 4000 fluorescence intensity (a.u.).

In the case of “TCGTTAGTGGTTACGACTGATTGAGATGTGTGCTCAGACACGGAGTCACCTAGTGCAG”, the binding signal was 8580 fluorescence intensity (a.u.).

On to “CTATGACTTAATTGATGCAAGAACTGAAAATACAGTTAGACGGAGTCACCTAGTGCAG”, for which the binding signal is 11300 fluorescence intensity (a.u.).

The values are drawn from article PMC7819943, “Rice protein-binding microarrays: a tool to detect cis-acting elements near promoter regions in rice”.
